Laboratory results reported in PubChem BioAssay AID463173 (ICCB-Longwood Screening Facility, Harvard Medical School, 2010).
In all, about 52,000 compounds went through this assay and about 1,700 (3.3%) were called active. Cut-off read from the data, not from the text of the source: active = survival mostly below about 52% (no sharp cut-off); inactive = mostly above about 56%. The list shows a part of the results.

test system: Wild type; assay: S. aureus survival, RN4220 and DeltatarO strains – OD600, teichoic acid synthesis inhibitors, primary screen (AID 463173); conditions: S. aureus RN4220 wild type/DeltatarO growth, OD600, 18 h, hits give low values, screened at 18.75 µg/mL (by protocol)

Row | SMILES | survival
1 | O=C(Cn1ncc2c([nH]c3ccccc32)c1=O)Nc1cccc(C(F)(F)F)c1 | inactive: 76%
2 | Cc1nc(NN)nc(NCc2ccccc2)n1 | inactive: 109%
3 | CC(=O)N1CCc2cc(S(=O)(=O)NC(Cc3ccccc3)C(=O)Nc3cccc(C)c3)ccc21 (stereo not drawn) | inactive: 125%
4 | Cc1ccc(CNCc2ccccc2)s1 | inactive: 119%
5 | CCc1ccc(-n2c(=O)c3c4c(sc3n(Cc3ccc(C)cc3)c2=O)CCC4)cc1 | inactive: 104%
6 | CCc1ccc(N(CC(=O)NCC2CCCO2)S(C)(=O)=O)cc1 (stereo not drawn) | inactive: 112%
7 | Cc1cc(C)cc(N2CC(c3nc(-c4cccc(Cl)c4)no3)CC2=O)c1 (stereo not drawn) | inactive: 32%
8 | COc1ccc(CCNc2nccn(-c3ccc(C)c(C)c3)c2=O)cc1OC | inactive: 83%
9 | Cc1ccccc1CN1c2ccccc2S(=O)(=O)c2ccccc21 | inactive: 73%
10 | O=C1C(Nc2ccccc2)=CC(c2ccc(Br)cc2)N1c1ccccc1 (stereo not drawn) | inactive: 78%
11 | Cc1cc(-c2ccccc2)n2ncc(C#N)c2n1 | inactive: 109%
12 | COc1ccc(N2CCN(C(CNC(=O)C(=O)NCCc3ccccc3)c3cccnc3)CC2)cc1 (stereo not drawn) | inactive: 84%
13 | Cc1ccc(CN2CCC(CNC(=O)Nc3cccc(Cl)c3C)C2)cc1 (stereo not drawn) | inactive: 88%
14 | Cc1ccc(CCNC(=O)NCc2noc3ccccc23)cc1 | inactive: 116%
15 | O=C(NCc1ccccc1)c1ccc2nc(CCc3ccccc3)oc2c1 | active: -3%
16 | COc1ccc(C)cc1NC(=O)NCc1cccn1Cc1ccccc1 | inactive: 98%
17 | COc1ccccc1NC(=O)CN(C)S(=O)(=O)c1ccc2c(c1)c(=O)n(C)c(=O)n2C | inactive: 81%
18 | CCOCCCN(C(=O)Nc1ccc(Cl)cc1)C1CCN(C(C)=O)CC1 | inactive: 51%
19 | Cc1c(CNC2CCCCCC2)c(C(=O)O)c(C)n1Cc1ccc(F)cc1Cl | inactive: 88%
20 | O=C(COc1ccc(Cl)cc1)Nc1nnc2n1CCS2 | inactive: 146%

Row | SMILES | survival
21 | COc1ccc(C)cc1NC(=O)CSc1nc2ccccc2nc1N1CCOCC1 | inactive: 72%
22 | CC1CCCN(S(=O)(=O)c2ccc3[nH]c(=O)cc(C(=O)NCCc4ccc(Cl)cc4)c3c2)C1 (stereo not drawn) | inactive: 97%
23 | COc1cc(OC)cc(-c2nc(-c3cccc(C)c3)no2)c1 | active: -15%
24 | CN1/C(=C2/SC(=S)N(N)C2=O)Sc2ccccc21 | inactive: 106%
25 | CC(C)c1ccc(NC(=O)c2ccc(F)c(S(=O)(=O)N3CCCCCC3)c2)cc1 | inactive: 55%
26 | O=C1CCSc2ccc(S(=O)(=O)Nc3ccc(Cl)c(C(F)(F)F)c3)cc2N1 | inactive: 81%
27 | Cn1c(SCC(=O)NC(C)(C)C)nnc1-c1ccccc1 | inactive: 99%
28 | COc1ccc(S(=O)(=O)NCCc2csc3nc(-c4ccc(OC)c(OC)c4)nn23)cc1C | inactive: 69%
29 | CCc1ccccc1NC(=O)C1CCN(S(=O)(=O)c2ccc3[nH]c(=O)ccc3c2)CC1 | inactive: 128%
30 | CC(C)(C)c1ccc(C(=O)Nc2cc(-c3nc4ccccc4o3)ccc2Cl)cc1 | active: 2%
31 | CCc1ccccc1NC(=O)c1ccc2c(c1)CCN2S(C)(=O)=O | inactive: 88%
32 | CCCCn1c(=O)c2oc3ccccc3c2n(CC(=O)Nc2cccc(Cl)c2C)c1=O | inactive: 82%
33 | COc1cc(NC(=O)c2sc3nc4n(c(=O)c3c2C)CCCCC4)cc(OC)c1OC | inactive: 80%
34 | Cc1noc(C)c1S(=O)(=O)N1CCC(C(=O)Nc2ccc(Br)cc2)CC1 | inactive: 90%
35 | COc1ccc(Cc2nc3ccc(C(=O)NCc4ccc(OC)cc4OC)cc3o2)cc1 | inactive: 83%
36 | COc1ccc2nc(Cl)c(CNCCN(C)C)c(N3CCCCC3)c2c1 | inactive: 110%
37 | COc1ccc(CNC(=O)c2nc(Cn3nc(C)c(Br)c3C)no2)cc1OC | inactive: 72%
38 | CCN(C(=O)c1cc2cc3ccc(OC)cc3nc2o1)c1cccc(C)c1 | active: 0%
39 | COc1ccc(N2CCN(S(=O)(=O)c3c(C)[nH]c(=O)[nH]c3=O)CC2)cc1 | inactive: 69%
40 | O=S(=O)(NC1CC1)c1ccc(S(=O)(=O)N2CCCc3ccccc32)cc1 | inactive: 110%

Row | SMILES | survival
41 | O=C(C1CCN(S(=O)(=O)c2ccc3c(c2)OCCO3)CC1)N1CCN(c2nc3ccccc3s2)CC1 | inactive: 101%
42 | CC(=O)c1ccc(Oc2nc(C)nc3c2oc2ccccc23)cc1 | inactive: 90%
43 | COc1ccc(-c2nc(C(=O)Nc3ccc(C(C)=O)cc3)nn2-c2cccc(Cl)c2)cc1 | inactive: 53%
44 | COc1ccc(OC)c(-c2csc(-c3c(N)c(C(=O)c4ccccc4)n4ccccc34)n2)c1 | inactive: 89%
45 | COc1ccc(CN(Cc2ccco2)c2cnc(S(C)(=O)=O)nc2C(=O)Nc2ccc(F)cc2)cc1 | inactive: 78%
46 | COc1ccc(S(=O)(=O)N(CC(=O)Nc2cccc(C(F)(F)F)c2)c2ccc(C)cc2)cc1 | inactive: 73%
47 | Cn1c(=O)n(C/C=C/c2ccccc2)c(=O)c2c1nc1n2CCN1c1ccccc1 | inactive: 114%
48 | CCCCOc1ccc(CNC(=O)C2COc3ccc(OC)cc3C2)cc1 (stereo not drawn) | inactive: 128%
49 | CCOc1ccc(C(=O)c2cn(CC(=O)Nc3ccc4c(c3)OCO4)c3ccc(OCC)cc3c2=O)cc1 | inactive: 77%
50 | COc1ccc(-n2c(=O)c3c(c4cc(OC)ccc4n3C)n(Cc3cc(C)ccc3C)c2=O)cc1 | inactive: 89%
51 | N#Cc1cnc(SCCc2ccccc2)nc1N | inactive: 105%
52 | OCc1ccccc1CNc1ccc(F)cc1 | inactive: 106%
53 | Cc1ccc(NC(=O)CN2C(=O)COc3ccc(S(=O)(=O)N4CCCCC4)cc32)cc1N(C)C | inactive: 106%
54 | COC(=O)c1cccnc1-n1c(=O)c2cccnc2n(CC(=O)Nc2c(C)cc(C)cc2C)c1=O | inactive: 66%
55 | CC(=O)N1CCN(c2nc(C3CC3)nc3sc4c(c23)CCCC4)CC1 | inactive: 110%
56 | O=C(Cn1ncn2nc(-c3cccs3)cc2c1=O)NCc1cccc(Br)c1 | inactive: 89%
57 | Nc1c(C(=O)c2ccc(F)cc2)sc(Nc2ccccc2F)c1S(=O)(=O)c1ccc(Br)cc1 | inactive: 74%
58 | Cc1cccc(CNC(=O)c2ccc(NC(=O)N3CC(C)Sc4ccccc43)cc2)c1 (stereo not drawn) | inactive: 72%
